PubChem BioAssay AID1745845 (National Center for Advancing Translational Sciences (NCATS), 2022)
Among all 360,000 compounds or so, about 2,600 (0.72%) were called active. Inconclusive means that the source gave no clear call. Such entries were picked first, then a sample of the others. Calls follow the shape of the dose curve; as a rule, active = well fitted inhibition curve with a large enough effect; inconclusive = small, poorly fitted or top-dose-only effect; inactive = no such curve, though single readings can be large or run the other way. Potencies beside an inconclusive call are fits to weak or partial responses and may not hold up.

test: Primary qHTS for Inhibitors of ATXN expression; details: HEK-293 ATXN2-luciferase reporter, luminescence, 24 h; activity change, negative = inhibition: at 57 µM (top of the series); also: nearly all actives have a fitted effect of over 55% in size
Outline: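 qHTS (up to 57 uM final) was run with 24 h compound exposure of reporter cells at 37 °C. Each well was multiplexed: SteadyGlo luminescence measured ATXN2-luciferase expression after a fluorogenic Gly-Phe-AFC viability readout (25 uM final).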
% is scaled to controls: 0 for no effect and ±100 for the full control effect; potency is read from the fitted curve at half-maximal effect; tags tell the direction and shape of the fitted curve.

SMILES	Potency	activity change, negative = inhibition
CCCCn1c(N)c(N(CC(C)C)C(=O)C2CC(=O)N(c3ccc4c(c3)OCCO4)C2)c(=O)[nH]c1=O (stereo unspecified)	inactive	
Cc1ccc(-c2nn(CC(=O)NC3CCCC3)c3c2cnc2ccc(F)cc23)cc1C	inactive	
O=C(COC(=O)c1cc(=O)[nH]c(=O)[nH]1)Nc1cccc(Cl)c1	inactive	
O=C(C[C@H]1C[C@H](C(=O)N2CCOCC2)[C@@]2(CCC3CCCC3)c3[nH]c4cc(-c5ccco5)ccc4c3CCN2C1=O)NCCCn1ccnc1	inconclusive: 39.8 µM [inhibitor, single point]	
CC1(Cc2ccc(OC(F)(F)F)cc2)C(=O)Nc2ccc(S(=O)(=O)NC3CCCCC3)cc21 (stereo unspecified)	inconclusive: 17.8 µM [inhibitor, single point]	
CC(C)C[C@@H](COCc1cccc(Cl)c1)N1CCN(C(=O)c2ccc(C(F)(F)F)cc2)CCC1=O	inconclusive: 20 µM [inhibitor, partial curve]	
CCc1nc2sc3c(N4CCC(C)CC4)ncnc3c2c2c1CCCC2	inactive	
COc1ccc(-c2csc(NC(=O)C3CC(=O)N(Cc4ccco4)C3)n2)cc1 (stereo unspecified)	inactive	
O=C(NC1CCCCC1)C1c2ccccc2OCC(=O)N1Cc1ccc2c(c1)OCO2 (stereo unspecified)	inactive	
C[C@]12CCC(=O)C=C1C=C[C@@H]1[C@@H]2CC[C@@]2(C)[C@H]1CC[C@@]21CCC(=O)O1	inactive	
CCC(CC)C(=O)OCC(=O)Nc1cc(OC)c([N+](=O)[O-])cc1C	inactive	
CN(C)c1ccc(CNC(=O)C2(C)Cc3c(-c4ccc(N(C)C)cc4)ccnc3O2)cc1 (stereo unspecified)	inconclusive: 39.8 µM [inhibitor, single point]	
O=C(CCCc1nc2ccccc2s1)Nc1nccs1	inconclusive: 15.8 µM [inhibitor, partial curve, poor fit]	
COc1cccc(N2C(=O)C3CCCN3C2=S)c1 (stereo unspecified)	inconclusive: 28.2 µM [inhibitor, single point]	
COC(=O)c1cc(C)nc2c1C(=O)C(=O)C=C2N1CCOCC1	active: 3.55 µM	
Cc1ccc2nc(-c3ccccn3)c(NC3CCCC3)n2c1	inconclusive: 39.8 µM [inhibitor, single point]	
Cc1nn(-c2ccccc2)c(C)c1/C=N/NC(=O)CSc1nnc(-c2ccccc2)n1-c1ccc(Cl)cc1	inconclusive: 25.1 µM [inhibitor, partial curve, poor fit]	
COc1ccc(C(=O)Nc2ccc3c(c2)CCCN3C(=O)c2cccs2)c(OC)c1	inconclusive: 31.6 µM [inhibitor, single point]	
CCCc1cc(C(=O)N2CCCC(C(=O)c3cc(C)c(OC)c(C)c3)C2)n(C)n1 (stereo unspecified)	inconclusive: 12.6 µM [inhibitor, partial curve]	
CCOC(=O)CSc1nnc(NCC(=O)OC)c(=O)[nH]1	inactive	
Cc1ccc(/C=C2\SC(=S)N(CC(=O)Nc3cccnc3)C2=O)cc1		inactive: 0.743% [at 11.3 µM]
CN1CCN(c2ccccc2NC(=O)c2ccc(-c3cccc(Cl)c3)o2)CC1	inconclusive: 17.8 µM [inhibitor, single point]	

SMILES	Potency	activity change, negative = inhibition
Cc1ccc(-c2cc(NC(=O)CCl)n(-c3ccccc3)n2)cc1	inconclusive: 39.8 µM [inhibitor, single point]	
O=C(NCCc1ccccc1Cl)c1ccc2c(=O)n(-c3ccccc3)c(=O)[nH]c2c1	inconclusive: 31.6 µM [inhibitor, single point]	
CCOCC(=O)Nc1ccc([N+](=O)[O-])cc1OC		inactive: 7.5% [at 11.3 µM]
Cc1cc2c(cc1C)N(Cc1ccccc1)C1=NCCCN12	inconclusive: 7.94 µM [inhibitor, partial curve]	
O=C(c1cc(Br)ccc1Cl)N1CCN(c2ccccn2)CC1		inconclusive: -51.5% [inhibitor]
CCCCNC(=O)C[C@@H]1C[C@@]2(C(=O)OC)CCCCC=C2N(Cc2cccc3ccccc23)C1=O	inconclusive: 25.1 µM [inhibitor, single point]	
CS(=O)(=O)Nc1cccc(C2=NN(C(=O)c3ccccc3)C(c3cccs3)C2)c1 (stereo unspecified)	inactive	
CCCCN1CC(C(=O)NC2CCCCC2)CC1=O (stereo unspecified)	inactive	
Cc1ccc(-c2nnc(CSc3nnc(COc4cccc5ccccc45)n3-c3ccccc3)o2)cc1	inconclusive: 28.2 µM [inhibitor, single point]	
COc1cc(OC)c2c(-c3ccccc3)cc(=O)oc2c1C(CCN1CCCC(C)C1)c1ccc2c(c1)OCO2 (stereo unspecified)	inconclusive: 17.8 µM [inhibitor, partial curve]	
O=C(/C=C/c1cccc([N+](=O)[O-])c1)NCCSCc1ccc(Cl)cc1Cl	inconclusive: 35.5 µM [inhibitor, single point]	
OCCOCCn1c(C2CCCN2c2nc(-c3ccc(F)cc3)cs2)nc2cc(Cl)c(Cl)cc21 (stereo unspecified)	inconclusive: 35.5 µM [inhibitor, partial curve, poor fit]	
CN(C)/C=N/c1ncc(C(=O)c2ccccc2)s1	inactive	
O=C(c1sccc1Br)N1CCN(Cc2ccc3c(c2)OCO3)CC1	inactive	
Cc1ccccc1C(=O)Nc1c(C)nc(Nc2ccccc2)nc1Nc1ccccc1	inconclusive: 28.2 µM [inhibitor, single point]	
CC1CCCCN1C(=O)c1cc(Cl)ccc1[N+](=O)[O-] (stereo unspecified)	inactive	
CS(=O)(=O)c1ncc(Cl)c(C(=O)Nc2ccc(OC(F)F)cc2)n1	inconclusive: 39.8 µM [inhibitor, single point]	
CC1Cc2cc(S(=O)(=O)N3CCN(c4ccccc4F)CC3)ccc2N1C(=O)C1CC1 (stereo unspecified)	inconclusive: 17.8 µM [inhibitor, partial curve, poor fit]	
Cn1c(=O)[nH]c(=O)c2c1nc(N1CCC(Cc3ccccc3)CC1)n2Cc1ccccc1	inconclusive: 39.8 µM [inhibitor, single point]	
CC(C)NC(=O)NNc1c(Cl)cncc1Cl	inconclusive: 0.947 µM [inhibitor, full curve]	
CCn1cc(C(=O)NCc2ccc3c(c2)OCO3)c(=O)c2cc(F)c(N3CCN(C(=O)c4ccco4)CC3)cc21	inconclusive: 31.6 µM [inhibitor, single point]	
COc1ccccc1NS(=O)(=O)c1cc(NC(=O)c2cccnc2)ccc1N1CCCCC1	inconclusive: 25.1 µM [inhibitor, single point]	

SMILES	Potency	activity change, negative = inhibition
COc1cccc(NC(=O)N2CCc3nc(Nc4cc(Cl)cc(Cl)c4)ncc3C2)c1	inactive	
COc1cccc(NC(=O)CN(C)C(=O)c2ccccc2Sc2ccccc2C#N)c1	inconclusive: 7.94 µM [inhibitor, partial curve, poor fit]	
COc1ccc(NC(=O)c2c(C)oc3ccc(O)c(CN4CCCCCC4)c23)cc1Cl	inactive	
CC/C(=N\N=C(/CC)c1ccccc1N)c1ccccc1N	inactive	
CCOc1ccc(Cc2nc(C)c(CC(=O)N3CCCCC3)c(=O)[nH]2)cc1	inactive	
O=C(CSC1=NNC(c2ccccn2)S1)Nc1cccc(Cl)c1 (stereo unspecified)	inconclusive: 2.82 µM [inhibitor, partial curve, poor fit]	
COC(=O)c1sc2cc(C(F)(F)F)cnc2c1-c1cccnc1	inactive	
CC(C)(C)c1ccc(C(=O)NNc2cc(N3CCCCC3)nc(N3CCCCC3)n2)cc1	inactive	
Cc1ccc(C(C(=O)NCC2CCCO2)N(C(=O)c2snc(C(N)=O)c2N)c2ccc(C(C)C)cc2)o1 (stereo unspecified)	inconclusive: 39.8 µM [inhibitor, single point]	
Cn1c(/C=C/c2cccc([N+](=O)[O-])c2)c([N+](=O)[O-])c(=O)n(C)c1=O	inconclusive: 39.8 µM [inhibitor, single point]	
CCc1ccc(Nc2n[n+](-c3ccccc3)c(-c3ccc(SC)cc3)s2)cc1	inconclusive: 25.1 µM [inhibitor, partial curve]	
COC(=O)c1ccc2nc(C3CCCCC3)c(CC(C)(C)C)n2c1	inconclusive: 12.6 µM [inhibitor, partial curve]	
c1csc(CNc2ncnc3ccc(-c4ccc5c(c4)OCCO5)cc23)c1	inconclusive: 39.8 µM [inhibitor, single point]	
CCNC(=O)COc1ccc(/C=C2\COc3ccccc3C2=O)cc1OC	inconclusive: 39.8 µM [inhibitor, single point]	
COc1ccccc1NC(=S)N(CCc1c(C)[nH]c2ccccc12)Cc1cccs1	inconclusive: 12.6 µM [inhibitor, partial curve, poor fit]	
O=C(c1cccc(S(=O)(=O)N2CCN(c3ccc(F)cc3)CC2)c1)N1CCCC(C(F)(F)F)C1 (stereo unspecified)	inconclusive: 12.6 µM [inhibitor, partial curve, poor fit]	
CC(=O)Oc1ccc(N2C(=O)CC(N3CCOCC3)C2=O)cc1 (stereo unspecified)	inconclusive: 7.08 µM [inhibitor, single point]	
COc1cccc(CC(=O)Nc2nc(-c3ccc(OC)c(OC)c3)cs2)c1	inconclusive: 20 µM [inhibitor, single point]	
CC(C)(C)c1ccc(C(=O)NC2(C(F)(F)F)C(=O)Nc3c2c(=O)[nH]c(=O)n3-c2ccccc2)cc1 (stereo unspecified)	inactive	
CN1CCc2nc3sc(C(=O)Nc4ccccc4OC(F)(F)F)c(N)c3cc2C1	inconclusive: 39.8 µM [inhibitor, single point]	
CCCCNCCCOc1cccc(Cl)c1Cl	inconclusive: 39.8 µM [inhibitor, single point]	
COc1ccc(C(CCNCc2ccc(F)cc2)c2ccc(F)cc2)cc1 (stereo unspecified)	inconclusive: 28.2 µM [inhibitor, single point]	
